Data taken from PubChem BioAssay (NCI).
“And” between values parts separate entries of the source, which are not always exact repeats. Equal entries are not always repeated.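 Five concentrations, 48 hours, 96-well plates. The concentration for 50% growth inhibition is given as GI50. TGI denotes the concentration required for complete inhibition of growth.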

Tested on: NCI-H322M lung
Experiment: NCI tumour cell line growth inhibition, 48 h

Structure (SMILES) | GI50 [µM] | TGI
Oc1ccc(Nc2c3ccccc3nc3occ(Cl)c23)cc1 | 5.69 | 76.7 µM
CCCC(=O)N1CCN(c2ccc3c(c2)OC(C)O3)CC1 (centres undefined) | – | > 100 µM
O=C(CNS(=O)(=O)Cc1ccccc1)NNc1ccccc1 | – | > 100 µM
O=C(/C=C/C=C/c1ccccc1)c1ccccc1 | – | 41.2 µM
CC(=O)NC1=N/C(=C\c2ccc(Cl)cc2)C(=O)N1/C=C1\C(=O)Oc2ccccc2C1=O | – | > 100 µM
CC(C)(C)OC/C=C(/CO)[C@@H]1C=C[C@H](O)C1 | – | > 100 µM
COc1cc(/C=C\c2cc(OC)c(OC)c(OC)c2)cc(N/C=C\C(=O)c2cc(OC)c(OC)c(OC)c2)c1OC | 7.71 | > 100 µM
CCOC(=O)c1nc2cc(F)c(N3CCOCC3)cc2[nH]c1=O | – | > 100 µM
C[Si](C)(C)/C(Br)=C\CCN1C(=O)CCC1=O | – | > 100 µM
CCCOC(=O)CNC(=O)OC(C)(C)C | – | > 100 µM
CCOC(=O)[C@H](C)OC(=O)[C@@](C)(NC(=O)c1ccccc1C(=O)OC)[C@@H]1NC=C(C(=O)OC)CS1 | – | > 100 µM
CC(C)=CCc1cc2c(cc1O)OC[C@H]1c3cc4c(cc3O[C@@H]21)OCO4 | – | > 100 µM
CC(C)(C)[Si](C)(C)Oc1ccc(C2CNC(=O)C23CCC(=O)N3Cc2ccccc2)cc1 (centres undefined) | – | 41.8 µM
CCOC(=O)c1c(-c2ccc(OC)cc2)c(C#N)c2c(C#N)c(N)nn2c1N | 7.28 | > 100 µM
CCOC1c2cc(C(C)C)c(O)c(O)c2[C@@]23CCCC(C)(C)C2C1OC3=O (some centres undefined) | – | > 100 µM
C=C1CC/C=C(\C)CCC[C@H](C)[C@@H](O)[C@@H]2OC(=O)C(=C)[C@@H]2C[C@H]1O | – | 69.8 µM
CCSC1=N/C(=C\c2ccc(N(C)C)cc2)C(Cl)=N1 | – | > 100 µM
O=C1c2cccc3cccc(c23)C(=O)N1CCCCCN1CCN(CCCCCOc2ccc(-c3nc4ccc(N5CCOCC5)cc4[nH]3)cc2)CC1 | 31.3 | > 65.1 µM
Nc1ccn(C2OC(CO)C(O)C2O)c(=O)n1 (centres undefined) | > 28.2 | > 500 µM
COc1ccc(-c2nsc3c2NC(=O)CC3c2cccc(OC)c2)cc1 (centres undefined) | 4.67 | > 100 µM
O=S(=O)(Nc1ccc(Cl)cc1Cl)c1ccc(-c2cnc(C3CC3)o2)cc1 | 5.41 | > 92.3 µM
COc1ccc(-c2nc3ncccn3c2-c2ccc(SC)cc2)cc1 | – | 6.1 µM
O=C1NC(N/N=C\C(O)C(O)C(O)C(O)CO)=N/C1=C/c1ccc(Cl)cc1 (centres undefined) | – | > 100 µM
O=C1NI(C#Cc2ccccc2)c2ccccc21 | – | > 100 µM

Structure (SMILES) | GI50 [µM] | TGI
C=COC(=O)N[C@H]1CCc2cc(OC)c(OC)c(OC)c2-c2ccc(SC)c(=O)cc21 | – | 6.46 µM
CCCCC/C=C1\CCC(CN(C)C)C1=O (centres undefined) | – | 45.3 µM
COC1CCCCN1C(=O)c1ccccc1 (centres undefined) | – | > 25.3 µM
CN(CCN(C)C(=O)CCn1cc(F)c(=O)[nH]c1=O)C(=O)CCn1cc(F)c(=O)[nH]c1=O | – | > 100 µM
CN1CC[C@@H](c2c(O)cc(O)c3c(=O)cc(-c4ccc(C(F)(F)F)cc4Cl)oc23)[C@@H]1CO | 15.6 | 60.4 µM
COc1ccc(/C=C(\C(C)=O)C(=O)Nc2ccccc2)cc1 | – | > 100 µM
Cc1ccc(NC(=O)CCc2nnc(N)o2)cc1 | – | > 100 µM
COc1ccc(-c2cc3ccccc3oc2=O)cc1OC | – | > 100 µM
S=c1[nH]c2c(Cl)c(Cl)c(Cl)c(Cl)c2[nH]1 | – | 92.1 µM
Cc1cc(/N=C/c2ccc(F)cc2)n(-c2ccccc2)n1 | – | > 100 µM
CC(=O)c1c(O)ccc2c1c1c(n2C)C(=O)c2ccccc2C1=O | – | > 100 µM
CCOC(=O)C1SC(=Nc2ccccc2)N=C1C (centres undefined) | – | > 100 µM
O=C(NNc1ccccc1)C(=O)NNc1ccccc1 | > 100 | > 100 µM
CC(C)(C)[Si](C)(C)OC1C(=O)C[C@H]2CCCC[C@@H]12 (some centres undefined) | – | > 100 µM
O=C(CSc1c2ccccc2nc2ccccc12)Nc1ccccc1-c1ccccc1NC(=O)CSc1c2ccccc2nc2ccccc12 | – | > 100 µM
N=C1C(=N)c2ccccc2-c2ccccc21.N=C1C(=N)c2ccccc2-c2ccccc21.N=C1C(=N)c2ccccc2-c2ccccc21.[Cl-].[Ru+2] | – | 21.4 µM
CC1OC(OC2C(OC(=O)[C@]34CCC(C)(C)C[C@H]3C3=CC[C@@H]5[C@@]6(C)CC[C@H](OC7OC(CO)C(O)C(O)C7OC7OC(CO)C(O)C(O)C7O)C(C)(C)[C@@H]6CC[C@@]5(C)[C@]3(C)CC4)OCC(O)C2O)C(O)C(OC2OCC(O)C(O)C2O)C1OC1OCC(O)C(OC2OCC(O)C(O)C2O)C1O (some centres undefined) | – | 18.6 µM
COc1cc(C2CC(c3cccc(Nc4ccncc4)c3)=NN2c2ccc(Cl)cc2)cc(OC)c1OC (centres undefined) | 1.45 | 2.8 µM
CN(C)CCCn1cnc2cc(Cl)c(Cl)cc21 | – | > 100 µM
CS(=O)(=O)Nc1cc(-c2ccc3ncnc(Nc4c(Cl)ccc5c4OCO5)c3c2)cnc1Cl | 0.155 | 1.01 µM
O=c1nc(N2CCNCC2)oc2cc(Cl)oc(=O)c12 | – | 40 µM
CC(=O)OCC1OC(n2c(C)cc(C)c(C#N)c2=S)C(OC(C)=O)C(OC(C)=O)C1OC(C)=O (centres undefined) | – | > 100 µM
Cn1c2c(c3ccccc31)CCN1C(=O)CN(C(=O)C3CCCCC3)CC21 (centres undefined) | – | > 100 µM
COc1ccc(-c2nnc(N3CCN(C(=O)CN4CCN(c5ccccc5)CC4)CC3)nc2-c2ccc(OC)cc2)cc1 | > 100 | > 100 µM

Structure (SMILES) | GI50 [µM] | TGI
Cc1cccc2c1Sc1ccccc1C2NC(=O)CCN(C)C (centres undefined) | – | > 100 µM
CN(C)C(=S)Sc1ccc([N+](=O)[O-])cc1[N+](=O)[O-] | 14.8 | 28.2 µM
BrCc1cccc(C[P+](c2ccccc2)(c2ccccc2)c2ccccc2)c1 | > 100 | > 100 µM
O=C(CC(C(=O)c1ccsc1)c1ccccc1)c1ccccc1 (centres undefined) | – | > 100 µM
CCOC(=O)/C=C(\C(=O)OCC)n1ccc(=O)n(Cc2cn(CCCCOC(C)=O)nn2)c1=O | – | 40 µM
CN(C)CCNC(=O)c1cccc2ccc(-c3ccc(F)cc3)nc12 | – | 22.5 µM
CCOC(=O)c1sc2c(c1OC(=O)c1ccc(OC)cc1)c(=O)n(-c1ccccc1)c(=S)n2-c1ccccc1 | – | > 100 µM
Cc1cc(C(F)(F)F)cc(-n2nc(NS(=O)(=O)c3cc(C)c(Cl)cc3S)nc2N)n1 | – | > 100 µM
Cc1ccc2c(C3C(C#N)=C(N)Oc4cc5ccccc5cc43)cc(=O)oc2c1 (centres undefined) | 5.49 | > 100 µM
COc1cccc2c1C(=O)c1c(O)c3c(c(O)c1C2=O)C[C@@](O)(/C(C)=N/NC(=O)c1ccc(Cl)cc1)C[C@@H]3OC1CC(N)C(O)C(C)O1 (some centres undefined) | 0.706 | 3.75 µM
CCOC(=O)/C=C/c1ccc(C#Cc2ccccc2)cc1 | > 100 | > 100 µM
O=C(O)CCSC(CC1(c2ccc(Cl)cc2)NC(=O)CCS1)c1ccccc1 (centres undefined) | – | 33.2 µM
COC(=O)C1=CN(CC2=CC(=O)C(C)=CC2=O)C=C(C(=O)OC)C1c1cccc(OC)c1 | 6.12 | 13.3 µM
Cn1cc(-c2csc(-c3c[nH]c4ccc(Br)cc34)n2)c2cnccc21 | 3.64 | 25.3 µM
CC1=C(CO)C2=C(C)C3(CC3)[C@@](C)(O)C(=O)C2=C1 | – | 0.567 µM
CC12CCC3c4ccc(O)cc4CCC3C1C/C(=N\O)C2O (centres undefined) | – | > 100 µM
O=C(Nc1cc(C(F)(F)F)ccc1Cl)c1cccc(NC2=C(Cl)C(=O)N(Cc3ccccc3)C2=O)c1 | > 100 | > 100 µM
CC(=O)N1CCC(=O)/C(=C/c2ccccc2)C1 | – | > 100 µM
O=P1(c2ccccc2)Nc2ccccc2SSc2ccccc2N1 | – | 34 µM
CC(C)=CCc1cc(O)cc2c1OC(C=C(C)C)C1=C2C(=O)C2=C(C1=O)S(=O)(=O)CCN2 (centres undefined) | 3.82 | 10.4 µM
Cc1ccc(Nc2oc(-c3ccccc3)nc2[P+](c2ccccc2)(c2ccccc2)c2ccccc2)cc1 | 1.47 | 4.02 µM
C[C@]12CCC(=O)C=C1CC[C@@H]1C2CC[C@]2(C)Nc3[nH]ncc3CC12 (some centres undefined) | – | > 100 µM
COc1cccc(C2CC23C(=O)NC(=O)NC3=O)c1 (centres undefined) | – | > 100 µM
[N-]=[N+]=NCc1nc(N)c2c3c(sc2n1)CCCC3 | – | 32.6 µM

Structure (SMILES) | GI50 [µM] | TGI
CN(C)c1ccc(N=Nc2ccccn2)c(O)c1 | 0.402 | > 100 µM
CC1=C(/C=C/C(C)=C/C=C/C(C)=C/C(=O)OC2CC(n3cc(F)c(=O)[nH]c3=O)OC2CO)C(C)(C)CCC1 (centres undefined) | – | 20.1 µM
O=[N+]([O-])c1ccc(CI)cc1 | 10.5 | 23.7 µM
C[C@H]1CN[C@@H]2[C@@H](C)[C@H]3[C@@H](C[C@H]4[C@@H]5CC[C@H]6C[C@@H](N)CC[C@]6(C)[C@H]5CC[C@]34C)O[C@@]2(O)C1 | – | 7.84 µM
Oc1ccc2ccccc2c1N=Nc1ccc(Br)cc1 | – | > 100 µM
O=c1[nH]c2ccc(O)cc2o1 | – | > 100 µM
CC(C)=CC1CC(=[N+]=[N-])C(=O)C1(C)C (centres undefined) | – | > 100 µM
COc1ccc(OC)c(/C=C(/C#N)c2ccccc2)c1 | – | > 100 µM
CCN(Cc1ccc(F)cc1)c1ccc(CO)c(Br)c1 | 10.1 | 37.2 µM
CSc1nc(NC2OC(COC(C)=O)C(OC(C)=O)C(OC(C)=O)C2OC(C)=O)c(N=CC=Nc2c(NC3OC(COC(C)=O)C(OC(C)=O)C(OC(C)=O)C3OC(C)=O)nc(SC)n(C)c2=O)c(=O)n1C (centres undefined) | > 50 | > 100 µM
COc1cc(/C=C/C(=O)Oc2ccc(NC(C)=O)cc2)ccc1C(=O)O/C=C/c1ccccc1 | – | > 100 µM
CC1(C)OC[C@@H]([C@H](O)C2C=CC(=O)S2)O1 (some centres undefined) | – | > 100 µM
CN(C)C/C=C/C(=O)Nc1cc2c(Nc3ccc(F)c(Cl)c3)ncnc2cc1O[C@H]1CCOC1 | – | 11.8 µM and 3.34 µM
COC(=O)NC(C(F)(F)F)(C(F)(F)F)P1(=O)OCCCO1 | – | > 100 µM
CN(C)CCNC(=O)c1cccc2c(Nc3ccc(S(=O)(=O)N=C(N)N)cc3)c3ccccc3nc12 | – | > 100 µM
CC(=O)OCC1OC(OC2CC3C(C)(C)C(O)CC[C@]3(C)C3CCC45CC4(CCC5[C@@H](C)CC(O)C(O)C(C)(C)O)[C@]23C)C(O)C(O)C1O (some centres undefined) | – | > 10 µM
COc1ccc(-c2cc(/C=C/C(=O)c3ccc(OC)c(OC)c3)[nH]n2)cc1 | 1.62 | 4.92 µM
CC1C=CN(N(C)C)C2=C1C(=O)c1cnccc1C2=O (centres undefined) | – | 2.21 µM
COc1ccc(C(O)(CCC(C)C)C(CN2CCOCC2)c2ccc(Cl)cc2)cc1 (centres undefined) | 20.9 | 43.7 µM
Cn1c2ccccc2c2ncc3[nH]c4ccccc4c3c21 | – | 44.4 µM
O=C(NNC(=O)c1ccccc1O)c1cccc(Br)c1 | – | > 100 µM
CSc1ccsc1-c1sc(-c2cc(SC)c(-c3sc(-c4cc(SC)c(-c5sccc5SC)s4)cc3SC)s2)cc1SC | – | > 100 µM
CS/C(=C(\S)c1ccccc1)c1ccccc1 | – | > 100 µM
O=C(O)c1ccc(C(=O)O)c2c(C(=O)O)ccc(C(=O)O)c12 | – | > 100 µM
